Laboratory results from PubChem BioAssay AID1347417 (National Center for Advancing Translational Sciences (NCATS), 2020).
In all, about 120,000 compounds went through this assay and about 5,300 (4.4%) were called active. Inconclusive results, whose numbers are uncertain, are shown with a selection of clear calls. Calls come from the whole dose curve; as a rule, active = well fitted inhibition curve with a large enough effect; inconclusive = small, poorly fitted or top-dose-only effect; inactive = no such curve, though single readings can be large or run the other way. Potencies of inconclusive entries are doubtful fits and often do not repeat.

Test: qHTS Primary assay for Inhibitors of Plasmodium falciparum Dd2 growth in vitro; note: nearly all actives have a fitted effect of over 65% in size;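 for activity, negative = inhibition: plate controls were DMSO vehicle for no effect and reference drug for full effect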
Settings: P. falciparum Dd2 growth, SYBR Green, 72 h; activity, negative = inhibition: at 28.9 µM (top of the series) unless noted; series mostly up to 28.9 µM
Outline: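 Readout: SYBR Green fluorescence, 485 nm excitation, 535 nm emission, after ~16 h lysis at 37C. Before that, Dd2-infected red cells (2.5% hematocrit) grew 72 h with compound, 29 uM top final concentration.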
Potency is the fitted concentration of half-maximal effect; tags give direction and shape of the fitted curve.

SMILES	Potency	activity, negative = inhibition	outcome
Cc1cn2nc(C(=O)NCc3ccc4c(c3)OCO4)cc2c(N2CCCC2)n1	inconclusive: 17.8 µM [inhibitor, single point]		
Cc1cnc(C(=O)N[C@@H]2CCC[C@@H]2C(=O)NCc2cc(F)cc(F)c2)cn1		inactive: 12.9%	
CCOc1ccc(C2CC(=O)n3nc(-c4ccc(C)cc4)nc3S2)cc1OC (stereo unspecified)		inactive: 4.78%	
CC1=C(C(=O)Nc2ccc(C)cc2C)C(c2ccccc2[N+](=O)[O-])n2ncc(C(=O)Nc3ccccc3)c2N1 (stereo unspecified)	inconclusive: 17.8 µM [inhibitor, single point]		
CCOC(=O)C1CCCN(C(=O)c2ccc3c(c2)N(Cc2ccccc2)C(=O)c2ccccc2S3(=O)=O)C1 (stereo unspecified)	inconclusive: 1 µM [inhibitor, full curve]		
COc1ccc(-c2cc(N3CCN(C(=O)c4ccc(OC)cc4OC)CC3)n[nH]2)cc1	inconclusive: 5.01 µM [inhibitor, partial curve]		
Cn1cc(S(=O)(=O)c2ccc(Cl)cc2)c(=O)c2cc(F)c(N3CCCCCC3)cc21	active: 14.1 µM		
CCOc1ccc(NC(=O)c2ccc3c(SCC(=O)O)c4c(nc3c2)CCCC4)cc1	inconclusive: 11.2 µM [inhibitor, partial curve]		
Cc1ccc(C(=O)N2CCc3cc(CNS(=O)(=O)c4ccc(Cl)s4)ccc32)cc1	inconclusive: 17.8 µM [inhibitor, single point]		
Cc1noc(C)c1S(=O)(=O)N(C)C1CCc2nn(CC3CC3)c(=O)n2CC1 (stereo unspecified)			inactive
Cc1ccc(C)c(N2CCN(C(=O)C3CCN(c4nc(-c5ccc(C(C)C)cc5)no4)CC3)CC2)c1	inconclusive: 17.8 µM [inhibitor, single point]		
COc1ccccc1NC(=O)Cn1c(-c2ccc(Cl)cc2)nc(C)c(CCO)c1=O	inconclusive: 17.8 µM [inhibitor, single point]		
CN1CCC(NC[C@H]2O[C@@H](CO)[C@@H](O)[C@H]2N2CCN(c3ccc(F)cc3)CC2)CC1		inactive: 18.8%	
COc1ccccc1/C=C/CN1CC[C@@H](c2ccc3c(c2)OCO3)[C@H](O)C1	inconclusive: 10 µM [inhibitor, single point]		
CCc1ccc(N=C2NC(=O)CC(C(=O)Nc3ccc(OC)cc3)S2)cc1 (stereo unspecified)	inconclusive: 0.0355 µM [inhibitor, full curve, poor fit]		
COc1cc2c(cc1OC)C(COc1ccccc1OC)N(C(=O)CC(C)C)CC2 (stereo unspecified)	inconclusive: 11.2 µM [inhibitor, single point]		
COc1ccccc1C(=O)NCc1nnc2cc(-c3nc(C4CC4)no3)ccn12	inconclusive: 1.41 µM [inhibitor, partial curve, poor fit]		
Cn1nc2n(c1=O)CCNCC2		inactive: 4.24%	
Cc1cccc(-c2nc(S(=O)(=O)c3ccc(F)cc3)c(N3CCN(c4ccccc4)CC3)o2)c1	inconclusive: 11.2 µM [inhibitor, single point]		
Cc1ccc(NC2=C(c3ccc(C(F)(F)F)cc3)C(=O)c3ccccc32)cc1C	active: 0.794 µM		
Cc1ccc(-c2cc(C(=O)NCc3cnn(C)c3C)c3cc(Br)ccc3n2)cc1	active: 11.2 µM		

SMILES	Potency	activity, negative = inhibition	outcome
CS(=O)(=O)N1CCOc2ccc(CCC(=O)NCCc3cccnc3)cc2C1		inactive: -3.43%	
Cn1nc(-c2cccs2)cc1[C@H]1CN2CC[C@H]1C[C@@H]2COC(=O)Nc1ccccc1	inconclusive: 22.4 µM [inhibitor, single point]		
O=C(NC1CCN(Cc2ccccc2)CC1)c1cccc2c1CCN2C(=O)c1ccccc1	inconclusive: 1.78 µM [inhibitor, partial curve]		
O=C(Nc1cccc(-c2nnc3n2CCCC3)c1)c1ccccc1Cl	active: 5.62 µM		
CCOC(=O)C1CCN(C(=O)Cc2cccn2-c2ccc(F)cc2)CC1	inconclusive: 17.8 µM [inhibitor, single point]		
O=S(=O)(N1CCOCC1)N1CCOC(CCCc2ccccc2)C1 (stereo unspecified)		inactive: -14.7%	
CN1C(=O)C2(CCN(C(=O)C3(c4ccccc4)CC3)CC2)c2ccccc21	inconclusive: 14.1 µM [inhibitor, single point]		
COCC1CCCN(C(=O)c2cc(Cn3c(C)nc4ccccc43)[nH]n2)C1 (stereo unspecified)		inconclusive: -32.6% [inhibitor]	
CN1CCN(c2nc3c(c(=O)[nH]2)CCN(Cc2ccccc2C#N)CC3)CC1			inactive [at 5.79 µM]
CO[C@H]1C(=O)N(C(C)C)[C@H]1C1CCN(C(=O)Nc2ccc(C)c(C)c2)CC1	inconclusive: 3.55 µM [inhibitor, partial curve]		
CCc1c(C)sc2c1CCN(Cc1cccc(F)c1)C2c1ccccc1 (stereo unspecified)	inconclusive: 11.2 µM [inhibitor, single point]		
CN1CCC(N2CCN(S(=O)(=O)c3cccc(Cl)c3)CC2)C1=O (stereo unspecified)		inactive: 0.354%	
COc1ccc(Cl)cc1Nc1sc(C(=O)c2ccccc2)c(N)c1C(=O)Nc1ccccc1			inactive
COc1cc(OC)cc(-c2onc(C)c2C(=O)NCCC(c2ccccc2)c2ccccc2)c1	inconclusive: 8.91 µM [inhibitor, partial curve, poor fit]		
O=C(c1ccc[nH]1)N1CCC(n2cc(-c3nc(C4CC4)no3)nn2)C1 (stereo unspecified)	inconclusive: 7.94 µM [inhibitor, partial curve, poor fit]		
Fc1ccc(-c2noc3ncnc(N4CCN(c5ccccc5)CC4)c23)cc1	inconclusive: 12.6 µM [inhibitor, partial curve, poor fit]		
O=C(Nc1ccccc1)N1CCc2nc(C3CC3)nc(-c3ccc(Cl)cc3)c2C1	inconclusive: 5.01 µM [inhibitor, partial curve]		
COc1ccc(C(CC(=O)N2CCCCC2)c2c[nH]c3ccccc23)cc1OC (stereo unspecified)	inconclusive: 2 µM [inhibitor, partial curve, poor fit]		
CC(C)C(=O)N1Cc2ccccc2OC2(CCN(C(C)C)CC2)C1	inconclusive: 1.78 µM [inhibitor, partial curve]		
O=C(NC1CCN(C(=O)N2CC3CC(C2)[C@H]2CCCC(=O)N2C3)CC1)c1ccccc1 (stereo partly specified)		inactive: -6.92%	
